Measurements published in patent US7592316B2, “Peptides as NS3-serine protease inhibitors of hepatitis C virus” (Schering Corporation, priority 2000, dated 2009).

target: HCV NS3/NS4A protease (strain 1a) (Hepatitis C virus genotype 1a, UniProt P27958); experiment: biochemical; details: Table 5; HCV NS3/NS4A protease, spectrophotometric assay, 30° C., pH 6.5; read-out: Ki* Range

Compound	Ki
CC1(C)C2CN(C(=O)[C@@H](NC(=O)NC3CCCCC3)C(C)(C)C)[C@H](C(=O)NC(CC3CCC3)C(=O)C(N)=O)C21 (stereo partly shown)	1 to 100 nM
CC(C)(C)OC(=O)N[C@H](C(=O)N1CC2C([C@H]1C(=O)NC(CC1CCC1)C(=O)C(N)=O)C2(C)C)C1Cc2ccccc2C1 (stereo partly shown)	101 to 1000 nM
CCCC(NC(=O)[C@@H]1C2C(CN1C(=O)[C@@H](NC(=O)NC(C)(C)C)C1Cc3ccccc3C1)C2(C)C)C(=O)C(N)=O (stereo partly shown)	101 to 1000 nM
C=CCNC(=O)C(=O)[C@@H](CCC)NC(=O)[C@@H]1C2CCC(C2)N1C(=O)C(NC(=O)OC(C)(C)C)C(C)(C)C (stereo partly shown)	> 1000 nM
NC(=O)C(=O)C(CC1CC1)NC(=O)[C@@H]1[C@H]2[C@@H](CN1C(=O)[C@@H](NC(=O)NC1CCCCC1)C1Cc3ccccc3C1)C2(Cl)Cl (stereo partly shown)	1 to 100 nM
C=CCCC(NC(=O)C1C2CC2CN1C(=O)[C@@H](NC(=O)OC(C)(C)C)C(C)(C)C)C(=O)C(=O)NCC=C (stereo partly shown) [drawing 1777]	> 1000 nM
CC(C)(C)OC(=O)N[C@H](C(=O)N1C[C@H]2[C@@H]([C@H]1C(=O)NC(CC(F)(F)F)C(=O)C(N)=O)C2(C)C)C1CCCCC1 (stereo partly shown)	1 to 100 nM

Continued, values first:

Ki	Compound
1 to 100 nM	C[C@H]1CCC[C@@H]1OC(=O)N[C@H](C(=O)N1C[C@H]2[C@@H]([C@H]1C(=O)NC(CC1CC1)C(=O)C(N)=O)C2(C)C)C1CCCCC1 (stereo partly shown)
> 1000 nM	CCCC(NC(=O)C1[C@H]2[C@@H](CN1C(=O)C(NC(=O)OC(C)(C)C)C1CCC(F)(F)CC1)C2(C)C)C(=O)C(=O)O (stereo partly shown)
101 to 1000 nM	CC(C)(C)OC(=O)NC(C(=O)N1C[C@@H]2[C@H]([C@H]1C(=O)NC(CC1CC1)C(=O)C(N)=O)C2(Cl)Cl)C1CCCCC1 (stereo partly shown)
> 1000 nM	C=CCCC(NC(=O)[C@@H]1[C@@H]2[C@H](CN1C(=O)[C@@H](N)C1CCC(F)(F)CC1)C2(C)C)C(=O)C(=O)NCC=C (stereo partly shown)

same assay, conditions: Table 6; HCV NS3/NS4A protease, 30° C., pH 6.5; read-out: Ki*

Compound	Ki
CC1(C)C2[C@@H](C(=O)NC(CC3CCC3)C(=O)C(N)=O)N(C(=O)[C@@H](NC(=O)C3CCC(=O)O3)C3CCCCC3)C[C@@H]21 (stereo partly shown)	1 to 100 nM
COC(=O)C1(NC(=O)N[C@H](C(=O)N2C[C@H]3[C@@H]([C@H]2C(=O)NC(CC2CCC2)C(=O)C(N)=O)C3(Cl)Cl)C(C)(C)C)CCCC1 (stereo partly shown)	101 to 1000 nM
CC(C)(C)NC(=O)N[C@H](C(=O)N1C[C@H]2[C@@H]([C@H]1C(=O)NC(CC1CCC1)C(=O)C(=O)NCC(=O)NCc1ccccc1)C2(Cl)Cl)C(C)(C)C (stereo partly shown)	1 to 100 nM
CC1(C)[C@@H]2[C@@H](C(=O)NC(CC3CCC3)C(=O)C(N)=O)N(C(=O)[C@@H](NC(=O)OC(C)(C)C(F)(F)F)C3CCCCC3)C[C@@H]21 (stereo partly shown)	1 to 100 nM
COC[C@@H](NC(=O)N[C@H](C(=O)N1C[C@H]2[C@@H]([C@H]1C(=O)NC(CC1CCC1)C(=O)C(N)=O)C2(Cl)Cl)C(C)(C)C)C(C)(C)C (stereo partly shown)	1 to 100 nM
CC(C)(C)OC(=O)N[C@H](C(=O)N1C[C@H]2[C@@H]([C@H]1C(=O)NC(CC1CCC1)C(=O)C(N)=O)C2(C)C)C1(C)CCCCC1 (stereo partly shown)	101 to 1000 nM
CCC[C@@H](NC(=O)[C@@H]1[C@@H]2[C@H](CN1C(=O)[C@@H](NC(=O)OC(C)(C)C)C1CCCCC1)C2(C)C)C(=O)C(=O)NCC(=O)N[C@H](CC(=O)N(C)C)c1ccccc1	1 to 100 nM
CC(C)(C)NC(=O)N[C@H](C(=O)N1C[C@H]2[C@@H]([C@H]1C(=O)NC(CC1CCC1)C(=O)C(N)=O)C2(C)C)C1(C)CCCCC1 (stereo partly shown)	1 to 100 nM

Next, values leading:

Ki	Compound
101 to 1000 nM	CC1C[C@H]2CN(C(=O)[C@@H](NC(=O)OC(C)(C)C)C3CCCCC3)[C@H](C(=O)N[C@H](CC3CCC3)C(=O)C(N)=O)[C@H]2C1 (stereo partly shown)
1 to 100 nM	CCCC(NC(=O)[C@@H]1[C@@H]2[C@H](CN1C(=O)[C@@H](NC(=O)OC(C)(C)C)C1CCCCC1)C2(C)C)C(=O)C(=O)NCC(=O)NCCC(=O)N(C)C (stereo partly shown)
1 to 100 nM	CC(=O)O[C@H](C(=O)N[C@H](C(=O)N1C[C@H]2[C@@H]([C@H]1C(=O)NC(CC1CCC1)C(=O)C(N)=O)C2(C)C)C1CCCCC1)c1ccccc1 (stereo partly shown)
1 to 100 nM	CCC[C@H](NC(=O)[C@@H]1[C@@H]2[C@H](CN1C(=O)[C@@H](NC(=O)OC(C)(C)C)C1CCCCC1)C2(C)C)C(=O)C(=O)NCC(=O)N[C@H](CC(=O)N(C)C)c1ccccc1
101 to 1000 nM	CC(C)(C)OC(=O)N[C@H](C(=O)N1C[C@H]2[C@@H]([C@H]1C(=O)NC(CC(F)(F)F)C(=O)C(=O)NCc1ccccc1)C2(C)C)C(C)(C)C (stereo partly shown)
1 to 100 nM	CC1(NC(=O)N[C@H](C(=O)N2C[C@H]3[C@@H]([C@H]2C(=O)NC(CC2(F)CCC2)C(=O)C(N)=O)C3(C)C)C(C)(C)C)CCCCC1 (stereo partly shown)
